Paper PMC4336329 (PLoS ONE, 2015)
The campaign covered roughly 310,000 compounds. About 14,000 (4.5%) showed an effect of 50% or more. The effect is printed as a negative number. Some of the results follow.

Each molecule was assayed against human ether-à-go-go-related gene (hERG) potassium channel (human, UniProt Q12809) (assay: primary screen, population patch clamp on CHO cells stably expressing hERG).
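Also: peak tail current of the secondary pulse compared with the same well before compound.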

Sequence of human ether-à-go-go-related gene (hERG) potassium channel (Q12809 whole entry, looked up): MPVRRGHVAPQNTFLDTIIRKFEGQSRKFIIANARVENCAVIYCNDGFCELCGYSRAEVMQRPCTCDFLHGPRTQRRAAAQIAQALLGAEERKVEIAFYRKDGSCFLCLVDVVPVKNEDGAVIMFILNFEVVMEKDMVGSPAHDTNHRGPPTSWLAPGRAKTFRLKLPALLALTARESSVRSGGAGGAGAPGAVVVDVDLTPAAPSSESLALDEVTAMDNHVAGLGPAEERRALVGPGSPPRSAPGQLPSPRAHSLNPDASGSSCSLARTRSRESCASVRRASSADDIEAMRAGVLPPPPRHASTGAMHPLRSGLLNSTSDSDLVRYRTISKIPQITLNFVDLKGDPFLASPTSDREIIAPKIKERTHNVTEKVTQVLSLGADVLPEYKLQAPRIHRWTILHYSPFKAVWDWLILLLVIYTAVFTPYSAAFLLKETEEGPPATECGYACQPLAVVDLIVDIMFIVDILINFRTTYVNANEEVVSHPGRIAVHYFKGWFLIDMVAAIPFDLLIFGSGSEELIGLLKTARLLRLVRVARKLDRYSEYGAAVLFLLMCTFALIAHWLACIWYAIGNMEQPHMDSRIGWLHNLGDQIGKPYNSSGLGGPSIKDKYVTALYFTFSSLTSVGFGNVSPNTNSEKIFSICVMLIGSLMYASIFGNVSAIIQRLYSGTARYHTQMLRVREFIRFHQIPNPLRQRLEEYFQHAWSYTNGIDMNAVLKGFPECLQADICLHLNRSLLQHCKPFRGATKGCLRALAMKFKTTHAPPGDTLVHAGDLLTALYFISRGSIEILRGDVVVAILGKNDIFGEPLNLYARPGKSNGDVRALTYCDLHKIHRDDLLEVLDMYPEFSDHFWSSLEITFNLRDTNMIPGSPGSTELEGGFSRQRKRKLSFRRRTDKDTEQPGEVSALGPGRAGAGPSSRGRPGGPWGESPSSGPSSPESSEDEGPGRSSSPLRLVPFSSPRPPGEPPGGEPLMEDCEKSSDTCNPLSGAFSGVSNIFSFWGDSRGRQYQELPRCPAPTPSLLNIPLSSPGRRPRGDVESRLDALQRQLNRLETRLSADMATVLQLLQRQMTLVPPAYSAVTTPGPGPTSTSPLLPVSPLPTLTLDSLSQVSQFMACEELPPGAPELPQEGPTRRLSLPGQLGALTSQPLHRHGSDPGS

SMILES | hERG current change (%, negative = inhibition) at 10uM [%]
CN1CCN(C(=S)NC(=O)/C=C/c2cccs2)CC1 | -0.141
CSc1nccc(-c2c(-c3ccc(Cl)cc3)noc2C)n1 | -1.79
CC(C)(C)c1ccc(OCC(=O)NCCN2CCOCC2)cc1.Cl | 1.25
CCOC(=O)C(C)c1c(C(=O)c2ccc(C)nc2)c2ccccc2n1C (stereo not shown) | -0.443
COc1cc(C(=O)OCC(=O)N2CCOCC2)c([N+](=O)[O-])cc1OC | 14.5
Cc1ccc(C(=O)N(C)CC(=O)Nc2ccc(N3CCOCC3)cc2)s1 | -11.6
CCc1ccccc1NC(=S)NCC1CCN(c2ccc(OC)cc2)C1 (stereo not shown) | -7.36
Cc1cc(NC(=O)CSc2nc3c(C)cccc3cc2C#N)no1 | 16.9
COc1ccc(-n2c(Cc3cccn3C)nnc2SCC(=O)NCc2ccc(F)cc2)cc1 | -30.1
C[C@]12CC[C@@H](O)C[C@@H]1CC[C@@H]1[C@@H]2CC[C@]2(C)[C@@H](O)CC[C@@H]12 | 19.8
COc1cccc2sc(N(CCCN(C)C)C(=O)CCS(=O)(=O)c3ccccc3)nc12 | -62.7
COc1ccc(C(=O)N2CCOCC2)cc1S(=O)(=O)N1CCC(C)CC1 | -9.4
CC(C)(C)NC(=O)NC(=O)COC(=O)c1ccc2c(c1)S(=O)(=O)N=C1CCCCCN12 | 18.9
CCOCCCNC(=O)C(NC(=O)c1ccc2c(c1)OCO2)c1ccc(OC)cc1 (stereo not shown) | -11.6
CC(C)N(Cc1nc(-c2ccccc2)no1)C(=O)C1CCCCC1 | -12.1
Cc1c(C)c2ccc(OC(C)C(=O)NC3CC(C)(C)NC(C)(C)C3)cc2oc1=O (stereo not shown) | 7.7
Cc1ccc(S(=O)(=O)N(CC(O)CN2CCCC2)c2ccccc2)cc1 (stereo not shown) | -62.2
O=C(O)C(=O)O.O=C1CN(C(=O)CNCc2cccc(Cl)c2)c2ccccc2N1 | 11.2
Cc1noc(C)c1S(=O)(=O)N1CCCC(C(=O)Nc2cccnc2)C1 (stereo not shown) | 2.51
O=C(COC(=O)c1ccc(O)cc1O)NCCN1C(=O)CSC1=O | 11.9
COc1ccccc1NS(=O)(=O)c1ccc(C(=O)N2CCN(c3ccccc3)CC2)cc1 | -16.9
Cc1ccc(C(=O)OCC(=O)NCc2cc(C)c(O)c(C)c2)cc1S(=O)(=O)N1CCCCC1 | -28.2

SMILES | hERG current change (%, negative = inhibition) at 10uM [%]
COC(=O)c1cccc(NC(=O)c2ccc[n+]([O-])c2)c1 | 21.7
O=C(O)c1cccc(-c2ccc3c(c2)OCO3)c1 | 17.4
CC(C(=O)NN=C(c1ccccc1)c1ccccc1)N1CCOCC1 (stereo not shown) | -12.8
C=CCOc1ccc(Br)cc1CNCC.Cl | -10.5
O=C(Nc1ccc(Br)cn1)c1cccc(-c2cc3ccccc3oc2=O)c1 | 17.3
CC(=O)Nc1ccc(S(=O)(=O)NCCC(=O)OCC(=O)c2ccc(Br)cc2)cc1 | -12.6
Cl.c1ccc(Cc2ccc(OCCn3ccnc3)cc2)cc1 | -29.5
CC(CNC(=O)CCc1nnc2ccc(N3CCC4(CC3)OCCO4)nn12)c1ccccc1 (stereo not shown) | -0.296
COc1ccccc1CNC(=O)c1cc(C2CC2)nc2c1cnn2C(C)C | -15.9
N#Cc1c(C(F)(F)F)cc(-c2ccccc2)nc1SCC(=O)N1CCOCC1 | -8.28
CCOC(=O)c1[nH]c2ccccc2c1NC(=O)CC(C)C | 5.72
CCN1C(=O)C(=Cc2c(C)n(CC(=O)NCC3CCCO3)c3ccccc23)C(=O)N(CC)C1=S (stereo not shown) | 27.5
CCN(Cc1ccccc1)Cc1cc(OC)cc(OC)c1 | -33
O=C1C2CC=C(Cl)CC2C(=O)N1CCCCCCN1C(=O)C2CC=C(Cl)CC2C1=O (stereo not shown) | -38.9
CC(C(=O)N1CCOCC1)N1c2cccc3cccc(c23)S1(=O)=O (stereo not shown) | 0.223
C=CCn1c(N2CCN(c3ccc(OC)cc3)CC2)nc2c1c(=O)[nH]c(=O)n2C | -24.6
Cn1c(C(C#N)C(=O)c2sc3ccccc3c2Cl)nc2ccccc21 (stereo not shown) | 7.05
Cc1ccc(CNc2oc(COc3ccccc3Cl)nc2C#N)cc1 | 13.2
Cn1c(C(=O)O)c(CC(=O)Nc2ccc(F)cc2F)c2ccccc21 | -1.51
O=C(Nc1ccc(Oc2ncccn2)cc1)c1ccco1 | 11.7
COc1ccc2c(c1)[C@H]1[C@H](CO2)[C@H](c2ccccc2)[C@]2(C)C(=O)N[C@H](C)C(=O)N12 | 6.48
O=c1cc2[nH]c3ccccc3c(=O)n2nc1-c1ccccc1 | 9.65

SMILES | hERG current change (%, negative = inhibition) at 10uM [%]
c1ccc2c(N3CCCCCC3)nc(-c3ccncc3)nc2c1 | -34.5
CCOC(=O)c1c(C)[nH]c(C)c1S(=O)(=O)NCC1CCN(Cc2cccc(Cl)c2)CC1 | -20.5
COCCCNC(NC(=O)c1ccc(OC)cc1)C(Cl)(Cl)Cl (stereo not shown) | 2.33
O=C(CN(c1ccccc1)S(=O)(=O)c1ccccc1)N1CCOCC1 | 4.9
CCN1C(=O)[C@H]2[C@@H](c3ccc(OC)cc3)N3C(=O)CN(CCOC)C(=O)[C@@]3(C)[C@H]2C1=O | -2.75
Cc1cc(C)c(C#N)c(SCC(=O)C(C)(C)C)n1 | -13.8
COC(=O)c1c2c(nc3ccccc13)CCC2 | -3.81
N#Cc1ccsc1NC(=O)CSc1nnc(-c2ccccc2)o1 | 2.98
Cc1cc2c3c(c1)C1(C(=O)N3C(C)(C)CC2C)C(C#N)=C(N)Oc2cc(O)ccc21 (stereo not shown) | 11.1
O=C(Cn1cc(SCc2ccc(Cl)cc2)c2ccccc21)N1CCOCC1 | -53.3
Cc1ccccc1CNc1nc(N)n(-c2ccccc2)n1.Cl | -14.8
COCCCNC(=O)c1ccc(CS(=O)(=O)c2ccc(OC)cc2)o1 | 5.86
CCOc1cc(C(=S)N2CCOCC2)ccc1OC(=O)c1ccccc1 | 12.9
Cc1ccc(O)c(N=CC2=C(O)c3ccccc3C2=O)c1 | 30.6
CC1(C)CC(=O)C2=C(C1)Nc1[nH]c(=S)[nH]c(=O)c1C2c1ccccc1 (stereo not shown) | 19.4
CCN(Cc1ccc2c(c1)OCCO2)C(=O)CN1C(=O)NC2(CCc3ccccc32)C1=O (stereo not shown) | -2.44
CC(=O)NC(=S)Nc1ccc(S(=O)(=O)N2CCOCC2)cc1 | 19.6
CCOc1cccc2cc(-c3cn4cc(C)ccc4n3)c(=O)oc12 | 17.4
CC(C)c1ccc(C(N)=S)cc1 | 16.6
O=C(CN1CCCN(Cc2ccc(F)cc2Cl)C1=O)NC1CCCCCC1 | -34.3
O=C(Cc1ccccc1)Nn1c(-c2ccccc2)nc2ccccc2c1=O | -7.98
COc1ccc(C(CNC(=O)Cc2ccccc2F)N2CCCCC2)cc1 (stereo not shown) | 4.86

SMILES | hERG current change (%, negative = inhibition) at 10uM [%]
Cc1ccc(C)n1N1C(=O)/C(=C\c2ccc(Cl)cc2)SC1=S | 6.57
CSc1ccccc1NC(=O)c1onc(C)c1Cl | 12.8
O=C(NCc1ccco1)c1nn2cccnc2c1Cl | -1.19
CCOC(=O)CSc1nnc(CNC(=O)c2ccc(S(=O)(=O)N3CCCCC3)cc2)n1C | 10.2
O=C1c2ccccc2-c2cccc(NS(=O)(=O)c3ccc(C(F)(F)F)cc3)c21 | 10.2
CC(C)CC1(C)NC(=O)NC1=O (stereo not shown) | -19
CN(N=Nc1ccc([N+](=O)[O-])cc1)c1ccccc1 | 15
COc1ccc(CNC(=O)CCCn2c(=S)[nH]c3cc4c(cc3c2=O)OCO4)cc1 | 12.6
Cc1cccc([N+](=O)[O-])c1NC(=O)CN(Cc1ccccc1)Cc1ccccc1 | -10.7
NC(=O)c1ccc(NC(=O)c2ccc3c(c2)OCO3)cc1 | -8.71
CCN(CC)c1ccc(/C=C2/C(=O)N(c3ccc([N+](=O)[O-])cc3)N=C2N2CCOCC2)cc1 | -4.56
CC(=O)c1cc2c(O)c(O)ccc2o1 | 12.5
Cc1ccc(C(=O)Nc2ccncc2)o1 | 0.524
Cc1ccc(C(=O)COC(=O)c2ccncc2)cc1[N+](=O)[O-] | 22.6
O=C(CN1C(=O)NC2(CCCc3ccccc32)C1=O)NCc1ccco1 (stereo not shown) | 2.37
O=C(NNC1=NCCCCC1)c1ccccc1 | 9.12
CCCCn1nc2cc(C(=O)NCc3ccccc3OC)ccc2c1OCC | -22.9
C=CCn1c(SCC(=O)NC(C)(C)C)nnc1-c1ccccc1O | -9.87
CC(=O)Oc1cc(OC(C)=O)c2c(=O)c(-c3ccc4c(c3)OCCCO4)c(C)oc2c1 | 10.8
Cc1ccc(-c2nc3ccccc3c(=O)n2CCCN2CCOCC2)cc1 | -10.9
CCOC(=O)N1CCN(C(=O)CCNS(=O)(=O)c2cc(Br)cnc2N)CC1 | 13.7
OCCCn1c(C2CCCN2c2nc(-c3ccc(Cl)cc3)cs2)nc2cc(Cl)c(Cl)cc21 (stereo not shown) | -21.8
